# In the supplement of paper PMC10037445:
# The full ranking holds about 2,900 compounds; the median of “IRF Lucia reporter activity, fold change vs agonist alone” is about 0.9, and the highest 2% start at about 2.8. This is one part of the list.
# Assays:
# RAW-Dual [1] = experiment: IRF Lucia reporter activity, fold change vs agonist alone; cytotoxicity flag (confluency mask): not cytotoxic; higher = enhanced IRF activity
# Method in brief: (§1)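 After 50 nL of library stock was delivered by pin tool to RAW-Dual macrophages (50,000 cells/well, DMEM, 384-well plates), a PRR agonist was added 1 h later and the plates were kept at 37 °C, 5% CO2. Twenty hours later, IRF was read from supernatant by QuantiLuc luminescence and NF-κB by QuantiBlue absorbance at 620 nm. Reporter activity is stated as fold change over agonist-alone wells. Wells with IncuCyte confluency under 70% of agonist controls in both mask sets were counted as cytotoxic.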
# RAW-Dual [2] = experiment: IRF Lucia reporter activity, fold change vs agonist alone; higher = enhanced IRF activity; conditions: agonist: MPLA (TLR4) […]
# Method in brief: as §1
# RAW-Dual [3] = experiment: IRF Lucia reporter activity, fold change vs agonist alone; cytotoxicity flag (confluency mask): cytotoxic (confluency <70% of control); higher = enhanced IRF activity
# Method in brief: as §1
# [4] = agonist: 3'3'-cGAMP (STING) 10 ug/mL
# [5] = library stock concentration (final ~1000-fold dilution): 10 mM, cytotoxicity flag (confluency mask): not cytotoxic
compound,measurement,setting,value
Cn1cnc([N+](=O)[O-])c1Sc1ncnc2nc[nH]c12 (library stock concentration (final ~1000-fold dilution): 10 mM),IRF Lucia reporter activity,RAW-Dual [1]; [4],0.98
same,IRF Lucia reporter activity,RAW-Dual [1]; agonist: LPS (TLR4) 0.1 ug/mL,0.942
Cn1cnc([N+](=O)[O-])c1Sc1ncnc2nc[nH]c12,IRF Lucia reporter activity,RAW-Dual [2]; [5],0.621
NS(=O)(=O)c1ccccc1,IRF Lucia reporter activity,RAW-Dual [2]; [5],1.15
NS(=O)(=O)c1ccccc1 (library stock concentration (final ~1000-fold dilution): 10 mM),IRF Lucia reporter activity,RAW-Dual [1]; [4],0.988
same,IRF Lucia reporter activity,RAW-Dual [1]; agonist: LPS (TLR4) 0.1 ug/mL,1.39
CCC1C(=O)N(C)c2cnc(Nc3ccc(C(=O)NC4CCC(N5CCN(CC6CC6)CC5)CC4)cc3OC)nc2N1C(C)C (centres undefined),IRF Lucia reporter activity,RAW-Dual [2]; [5],1.23
CCC1C(=O)N(C)c2cnc(Nc3ccc(C(=O)NC4CCC(N5CCN(CC6CC6)CC5)CC4)cc3OC)nc2N1C(C)C (centres undefined) (library stock concentration (final ~1000-fold dilution): 10 mM),IRF Lucia reporter activity,RAW-Dual [1]; [4],0.981
same,IRF Lucia reporter activity,RAW-Dual [1]; agonist: LPS (TLR4) 0.1 ug/mL,0.123
COc1ccc(-n2c(SCCCN3C(=O)c4cccc5cccc(c45)C3=O)nnc2-c2ccncc2)cc1,IRF Lucia reporter activity,RAW-Dual [2]; [5],1.1
COc1ccc(-n2c(SCCCN3C(=O)c4cccc5cccc(c45)C3=O)nnc2-c2ccncc2)cc1 (library stock concentration (final ~1000-fold dilution): 10 mM),IRF Lucia reporter activity,RAW-Dual [1]; [4],1.09
same,IRF Lucia reporter activity,RAW-Dual [1]; agonist: LPS (TLR4) 0.1 ug/mL,0.9
O=C1N[C@@H](Cc2cnc[nH]2)C(=O)N2CCC[C@@H]12 (library stock concentration (final ~1000-fold dilution): 10 mM),IRF Lucia reporter activity,RAW-Dual [1]; [4],0.925
same,IRF Lucia reporter activity,RAW-Dual [1]; agonist: LPS (TLR4) 0.1 ug/mL,0.988
Cc1cccc(CC(=O)N2CCc3c2ccc(-c2cn(C)c4ncnc(N)c24)c3F)n1,IRF Lucia reporter activity,RAW-Dual [2]; [5],0.898
Cc1cccc(CC(=O)N2CCc3c2ccc(-c2cn(C)c4ncnc(N)c24)c3F)n1 (library stock concentration (final ~1000-fold dilution): 10 mM),IRF Lucia reporter activity,RAW-Dual [1]; [4],0.958
same,IRF Lucia reporter activity,RAW-Dual [1]; agonist: LPS (TLR4) 0.1 ug/mL,0.592
Cc1c(-c2cnccn2)ssc1=S (library stock concentration (final ~1000-fold dilution): 10 mM),IRF Lucia reporter activity,RAW-Dual [1]; [4],0.148
same,IRF Lucia reporter activity,RAW-Dual [1]; agonist: LPS (TLR4) 0.1 ug/mL,0.695
C(=C\c1ccccc1)/CN1CCN(C(c2ccccc2)c2ccccc2)CC1,IRF Lucia reporter activity,RAW-Dual [2]; [5],0.986
C(=C\c1ccccc1)/CN1CCN(C(c2ccccc2)c2ccccc2)CC1 (library stock concentration (final ~1000-fold dilution): 10 mM),IRF Lucia reporter activity,RAW-Dual [1]; [4],1.04
same,IRF Lucia reporter activity,RAW-Dual [1]; agonist: LPS (TLR4) 0.1 ug/mL,1.06
CCCNC(=O)C1OC1C(=O)NC(C(=O)N1CCCC1C(=O)OC)C(C)CC (centres undefined),IRF Lucia reporter activity,RAW-Dual [2]; [5],1.09
CCCNC(=O)C1OC1C(=O)NC(C(=O)N1CCCC1C(=O)OC)C(C)CC (centres undefined) (library stock concentration (final ~1000-fold dilution): 10 mM),IRF Lucia reporter activity,RAW-Dual [1]; [4],0.915
same,IRF Lucia reporter activity,RAW-Dual [1]; agonist: LPS (TLR4) 0.1 ug/mL,1.14
CC(=O)c1c(C)c2cnc(Nc3ccc(N4CCNCC4)cn3)nc2n(C2CCCC2)c1=O.O=S(=O)(O)CCO,IRF Lucia reporter activity,"RAW-Dual [2]; library stock concentration (final ~1000-fold dilution): 10 mM water, cytotoxicity flag (confluency mask): not cytotoxic",1.4
CC(=O)c1c(C)c2cnc(Nc3ccc(N4CCNCC4)cn3)nc2n(C2CCCC2)c1=O.O=S(=O)(O)CCO (library stock concentration (final ~1000-fold dilution): 10 mM water),IRF Lucia reporter activity,RAW-Dual [1]; [4],0.284
same,IRF Lucia reporter activity,RAW-Dual [1]; agonist: LPS (TLR4) 0.1 ug/mL,0.933
CNCCCC12CCC(c3ccccc31)c1ccccc12.Cl (library stock concentration (final ~1000-fold dilution): 10 mM),IRF Lucia reporter activity,RAW-Dual [1]; [4],0.58
same,IRF Lucia reporter activity,RAW-Dual [1]; agonist: LPS (TLR4) 0.1 ug/mL,1.3
CNCCCC12CCC(c3ccccc31)c1ccccc12.Cl,IRF Lucia reporter activity,RAW-Dual [2]; [5],1.61
CS(=O)(=O)O.CS(=O)(=O)O.N=C(N)Nc1ccc(C(=O)Oc2ccc3cc(C(=N)N)ccc3c2)cc1 (library stock concentration (final ~1000-fold dilution): 10 mM),IRF Lucia reporter activity,RAW-Dual [1]; [4],1.09
same,IRF Lucia reporter activity,RAW-Dual [1]; agonist: LPS (TLR4) 0.1 ug/mL,0.86
CS(=O)(=O)O.CS(=O)(=O)O.N=C(N)Nc1ccc(C(=O)Oc2ccc3cc(C(=N)N)ccc3c2)cc1,IRF Lucia reporter activity,RAW-Dual [2]; [5],1.1
CONC(=O)Nc1ccc(-c2sc3c(c2CN(C)C)c(=O)n(-c2ccc(OC)nn2)c(=O)n3Cc2c(F)cccc2F)cc1,IRF Lucia reporter activity,"RAW-Dual [2]; library stock concentration (final ~1000-fold dilution): 10 mM, cytotoxicity flag (confluency mask): cytotoxic (confluency <70% of control)",1.85
CONC(=O)Nc1ccc(-c2sc3c(c2CN(C)C)c(=O)n(-c2ccc(OC)nn2)c(=O)n3Cc2c(F)cccc2F)cc1 (library stock concentration (final ~1000-fold dilution): 10 mM),IRF Lucia reporter activity,RAW-Dual [3]; [4],0.52
same,IRF Lucia reporter activity,RAW-Dual [3]; agonist: LPS (TLR4) 0.1 ug/mL,1.59
CCc1ccc(NC(=O)Nc2c[nH]c3ccccc23)cc1 (library stock concentration (final ~1000-fold dilution): 1 mM),IRF Lucia reporter activity,RAW-Dual [1]; [4],0.0266
same,IRF Lucia reporter activity,RAW-Dual [1]; agonist: LPS (TLR4) 0.1 ug/mL,0.636
O=C(O)CC(C(=O)O)N1C(=O)/C(=C2/C(=O)Nc3ccc(Br)cc32)SC1=S (centres undefined) (library stock concentration (final ~1000-fold dilution): 10 mM),IRF Lucia reporter activity,RAW-Dual [1]; [4],0.427
same,IRF Lucia reporter activity,RAW-Dual [1]; agonist: LPS (TLR4) 0.1 ug/mL,1.15
N=C(N)c1ccc(OCCCCCOc2ccc(C(=N)N)cc2)cc1.O=S(=O)(O)CCO.O=S(=O)(O)CCO (library stock concentration (final ~1000-fold dilution): 10 mM),IRF Lucia reporter activity,RAW-Dual [1]; [4],0.98
same,IRF Lucia reporter activity,RAW-Dual [1]; agonist: LPS (TLR4) 0.1 ug/mL,1.4
N=C(N)c1ccc(OCCCCCOc2ccc(C(=N)N)cc2)cc1.O=S(=O)(O)CCO.O=S(=O)(O)CCO,IRF Lucia reporter activity,RAW-Dual [2]; [5],1.2
